Where two headings read alike, the source gives them in different places.
Target: hSERT I172M (Homo sapiens, UniProt P31645, I172M)
Assay type: cell-based
[1] = […], inhibition of [3H]5HT uptake, read-out: EC50(μM) I172M

SMILES | Fold Δ | EC50 (read-out: EC50(μM) I172M) [µM] | EC50 [1] [µM] | EC50 [µM]
NCCc1c[nH]c2c(O)c(O)c(O)cc12 [5,6,7 trihydroxytryptamine] | .2 | 2.7 |  | 
NCCc1c[nH]c2c(O)cccc12 [7-hydroxytryptamine] | 1 | 1.1 |  | 
CC(N)Cc1c[nH]c2ccc(O)cc12.O=C(O)/C=C\C(=O)O (stereo not drawn) [Alpha-methylserotonin maleate] | 1 |  | 2.3 | 
CNC(C)Cc1ccc2c(c1)OCO2 (stereo not shown) [MDMA] | 1 | 0.8 |  | 
OC1(c2ccc(Cl)cc2)c2ccccc2C2=NCCN21 (stereo not shown) [Mazindol] | 12 |  |  | 36
CNCCC(Oc1ccccc1OC)c1ccccc1 (stereo not shown) [Nisoxetine] | 145 |  |  | 197
COC(=O)[C@H]1C(c2ccc(I)cc2)C[C@@H]2CC[C@H]1N2C (stereo partly shown) [RTI-55] | 176 |  | 0.12 | 
NCCc1c[nH]c2ccccc12 [Tryptamine] | 0 | 0.2 |  | 

From patent US7439039B2, “Assays for novel serotonin transporter (SERT) blockers” (priority 2003, dated 2008)
